Data reported in the RNAGym collection of RNA variant scans (doi:10.1093/nar/gkz1192).
Read counts are not given, so values of variants with three or more changes are uncertain.

B1: CPEB3 Ribozyme (parent)
chain: UAACAGGGGGCCACAGCAGAAGCGUUCACGUCGCAGCCCCUGUCAGAUUCUGGUGAAUCUGCGAAUUCUGCUGUAUAUCUC

Variants of: B1
Assay: self-cleavage, relative activity (ratio to wild type); higher = more cleavage; in vitro, sequencing
Summary of the method: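 Relative activity was defined as the cleaved/total read fraction for a variant divided by the same fraction for the unmutated ribozyme. CPEB3 self-cleaving ribozyme libraries were made by rounds of error-prone PCR, barcoded, and transcribed in vitro with T7 RNA polymerase for 5 hours at 37°C, and cleavage ran through transcription plus a 15 min DNase I step before EDTA. Illumina sequencing of template-switched reverse transcripts gave the reads, and DNA sequencing mapped the barcodes. Averages come from three batches, using variants with at least 5 reads.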

Variant	self-cleavage
A5U U41G A65G	0.23
A5U U43A G46A U58C A75G	0.09
A5U U43C A64G	0.47
A5U U43C A64U U67A	0.17
A5U U43C U48G U69C U80C	0.27
A5U U43G G46A	0.47
A5U U48C A64U	0.13
A5U U48C U49C A57G	0.91
A5U U48C U54A A56U U66C U80C	0.12
A5U U48G A65U U67C	0.19
A5U U49C U54A G55U A75G	0.23
A5U U49C U54A U60G	0.14
A5U U49C U66C U67G	0.31
A5U U49C U80A	0.73
A5U U51A A65C	0.13
A5U U51A G61C	0.68
A5U U51C A57G	0.88
A5U U51C G63A U74C	1.17
A5U U51C U60C U80A	0.53
A5U U54C A56U U67C U80C	0.23
A5U U54C A57G	0.58

Variant	self-cleavage
A5U U58C C71U A77G	0.35
A5U U60C A64G	0.56
A5U U60C C62G U72C	0.43
A5U U60C C62G U78C	0.31
A5U U60C U66G U72A	0.33
A5U U69G U80C	0.82
A5U U76C A77U	1.14
G6A A13C A20G U25C A35G C37U U43C	0.07
G6A A13C U31C U43C	0.27
G6A A13C U41A A56G	0.11
G6A A13G A18G U43C U78C	0.06
G6A A13G A20G U72C	0.11
G6A A13G A35G C38U U78C	0.35
G6A A13G A57G	0.17
G6A A13G U26C A28U U72C	0.06
G6A A13U A21C	0.08
G6A A13U A35U A45G	0.07
G6A A13U A65G	0.13
G6A A13U U31A A45C A57G U69C U80A	0.06
G6A A13U U54C	0.44
G6A A15G A21U G22C A28G	0.41

Variant	self-cleavage
G6A A15G A56G U69C U72C	0.16
G6A A15G A56U U69C U74A	0.06
G6A A15G C32U G53A A77C	0.07
G6A A15G U25C U26A	0.37
G6A A15G U31C U49C	0.23
G6A A15G U41C G70A U72A	0.1
G6A A15U A18G U60C	0.16
G6A A15U A28U U67C A75U	0.13
G6A A15U A35G U67A	0.18
G6A A15U G22U A28G	0.05
G6A A15U G24A U72A	0.17
G6A A15U U25C A47G A64G U67C U78A	0.03
G6A A15U U49A A56U U67G	0.09
G6A A18G A28G U41C U76A	0.04
G6A A18G A47U	0.29
G6A A18G U43G A45G	0.06
G6A A18G U48A U54A A57G	0.16
G6A A18G U49A	0.35
G6A A18G U51A U67C U80C	0.21
G6A A18G U74C	0.13
G6A A18U A20G U26C C29U A56G	0.08

Variant	self-cleavage
G6A A18U A35G G36A U72C	0.07
G6A A20C U26A U60C	0.06
G6A A20G A56G A65G	0.15
G6A A20G G24A U26A A57G U69C	0.18
G6A A20G G24C U69A	0.06
G6A A20U U25A U48A A65G U67C	0.1
G6A A20U U31A U67C	0.14
G6A A20U U41C G55C U72A A77U	0.07
G6A A21G A28G U67C	0.06
G6A A21G G52A U54C A64G	0.09
G6A A21G U25C C32A U60A U74C U80A	0.05
G6A A21G U26C U72C	0.34
G6A A21G U48C A65G	0.16
G6A A21U G33A C62U U67C	0.14
G6A A28G A47G	0.31
G6A A28U U31A A35U C38A G55A	0.04
G6A A28U U54C A77G	0.16
G6A A35G U41C	0.55
G6A A35U A45G U60C U69C	0.17
G6A A35U U54A	0.44
G6A A45G G52A U60A G63U A75G	0.17
